The other results are listed elsewhere or left out. The full chains were built here from the parent and the listed change. Values near 0.05 are background.
B1: TEV protease; numbered along this chain (parent)
chain: MGESLFKGPRDYNPISSSICHLTNESDGHTTSLYGIGFGPFIITNKHLFRRNNGTLVVQSLHGVFKVKDTTTLQQHLVDGRDMIIIRMPKDFPPFPQKLKFREPQREERICLVTTNFQTKSMSSMVSDTSCTFPSGDGIFWKHWIQTKDGQCGSPLVSTRDGFIVGIHSASNFTNTNNYFTSVPKNFMELLTNQEAQQWVSGWRLNADSVLWGGHKVFMVKPEEPFQPVKEATQL

Variants of: B1
Test: raw area under fraction-flipped curve 0-4 h after induction (AUC4h, not background-subtracted), DNA-recorder readout of cleavage of the substrate (dimensionless); higher = more cleavage of the substrate by the protease variant
Conditions: temperature: 34 °C; time window: 0-4 h after rhamnose induction
Procedure: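 In vivo DNA recorder in E. coli TOP10(DE3) ΔrhaA at 34 °C. Each TEVp single-site mutant (parent TEVp 0) is paired with a single-site variant of the 7-mer TEVs (canonical ENLYFQ|S). The substrate sits between flexible linkers in a Bxb1-sfGFP-TEVs-SsrA fusion, so cleavage stabilises Bxb1 and speeds flipping of a recombination array, read by NGS. The value is the raw area under the fraction-flipped curve over 0-4 h after rhamnose induction (AUC4h), with ≥20 reads per time point. It is not background-subtracted; inactive controls average about 0.047.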
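Also: Bxb1 expression induced with 0.2% (w/v) L-rhamnose at OD600 near 0.5, cultures sampled hourly, flipped fraction per protease–substrate barcode pair counted by paired-end Illumina sequencing.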

Row | Variant | area with substrate ENLCFQS | area with substrate ENLDFQS | area with substrate ENLHFQS | area with substrate ENLLFQS | area with substrate ENLNFQS | area with substrate ENLPFQS | area with substrate ENLQFQS | area with substrate ENLSFQS | area with substrate ENLVFQS | area with substrate ENLWFQS
1 | H76F | 0.0707 | 0.0679 | 0.0726 | 0.0573 | 0.0499 | 0.0647 | 0.0748 | 0.0676 | 0.0503 | 0.0723
2 | H76T | 0.0721 | 0.0582 | 0.0655 | 0.0256 | 0.0559 | 0.0382 | 0.0577 | 0.0774 | 0.0673 | 
3 | V78E | 0.0537 | 0.064 | 0.0494 | 0.0333 | 0.0766 | 0.0554 | 0.057 | 0.0595 |  | 0.0493
4 | M88L | 0.0649 | 0.0621 | 0.0851 |  | 0.0746 | 0.0689 | 0.0614 | 0.0669 | 0.0785 | 
5 | F92V | 0.0762 | 0.0543 |  |  | 0.0807 | 0.0711 |  | 0.0694 |  | 
6 | P93C | 0.0927 |  | 0.0687 |  | 0.0768 |  | 0.0581 | 0.0786 |  | 0.0599
7 | P93D | 0.0731 |  | 0.0665 | 0.0889 | 0.059 | 0.0588 | 0.047 |  | 0.0685 | 0.0822
8 | P94N | 0.0567 | 0.0665 | 0.0709 |  | 0.0539 |  | 0.0637 | 0.0537 |  | 
9 | L99V | 0.0596 | 0.0655 | 0.0738 | 0.0867 | 0.0699 |  |  | 0.068 | 0.0618 | 0.0728
10 | K100Q | 0.0638 | 0.0638 |  | 0.0704 | 0.0651 | 0.0619 | 0.0631 | 0.0632 | 0.0782 | 
11 | F101S | 0.0404 |  |  |  | 0.0465 | 0.0482 |  | 0.0398 |  | 0.0447
12 | E103D | 0.0657 | 0.0598 | 0.0632 |  |  | 0.0583 |  |  |  | 
13 | E103P | 0.0717 | 0.0527 |  |  | 0.0605 | 0.0236 |  | 0.09 |  | 0.0578
14 | R106N | 0.0991 |  |  |  | 0.0648 |  | 0.0831 | 0.134 |  | 
15 | V113K | 0.0597 | 0.0656 |  |  |  | 0.0734 | 0.0574 | 0.0454 | 0.0673 | 
16 | T114L | 0.0734 | 0.066 | 0.0923 |  |  | 0.0671 | 0.0777 | 0.077 |  | 
17 | N116W | 0.0623 | 0.0447 |  | 0.0815 | 0.0647 |  |  | 0.0482 | 0.0987 | 
18 | F117P | 0.0785 | 0.0611 |  | 0.0662 | 0.0622 | 0.0651 |  | 0.0551 | 0.0798 | 0.0721
19 | T119S | 0.0585 | 0.075 |  |  | 0.06 |  |  | 0.0654 |  | 
20 | D128T | 0.0795 | 0.0391 | 0.0783 |  |  |  |  | 0.0672 | 0.122 | 

Row | Variant | area with substrate ENLCFQS | area with substrate ENLDFQS | area with substrate ENLHFQS | area with substrate ENLLFQS | area with substrate ENLNFQS | area with substrate ENLPFQS | area with substrate ENLQFQS | area with substrate ENLSFQS | area with substrate ENLVFQS | area with substrate ENLWFQS
21 | T129D | 0.063 |  |  |  | 0.0613 |  |  |  | 0.0926 | 
22 | C131I | 0.0752 |  |  |  |  |  |  | 0.0457 |  | 
23 | D137A | 0.0695 |  | 0.0706 | 0.0809 |  |  |  |  |  | 0.0882
24 | G138P | 0.0745 |  |  |  | 0.0697 | 0.0269 |  | 0.0277 |  | 
25 | G138W | 0.0523 | 0.0653 |  | 0.0597 |  | 0.0564 |  | 0.0603 |  | 
26 | G138Y | 0.0545 |  | 0.0552 |  | 0.0407 | 0.0613 |  | 0.0634 |  | 
27 | I139T | 0.0802 | 0.0612 |  |  | 0.0674 |  |  |  |  | 
28 | H143N | 0.0751 |  |  | 0.0276 | 0.0591 | 0.0407 |  | 0.0827 |  | 
29 | G150A | 0.0562 | 0.059 |  | 0.0605 |  |  |  |  |  | 
30 | G150Y | 0.0477 | 0.0623 |  | 0.088 | 0.0625 | 0.0595 | 0.0562 | 0.0283 |  | 0.0552
31 | G153I | 0.0525 |  |  | 0.0484 |  |  | 0.0476 | 0.0596 |  | 
32 | G153L | 0.0491 | 0.0486 | 0.0294 | 0.0563 | 0.033 |  |  |  |  | 
33 | G153T | 0.0483 | 0.0537 |  | 0.0597 | 0.0492 |  |  |  | 0.053 | 0.0478
34 | S154I | 0.0659 | 0.078 | 0.0667 |  | 0.0459 |  |  | 0.0666 |  | 
35 | L156Y | 0.0593 |  |  |  | 0.0653 | 0.0429 |  |  |  | 0.0468
36 | G162N | 0.0701 | 0.0718 |  |  | 0.0626 |  |  | 0.057 |  | 
37 | V165L | 0.0753 |  |  |  | 0.0662 | 0.0777 |  | 0.0658 |  | 0.0472
38 | G166K | 0.0562 | 0.0648 | 0.0746 |  |  |  | 0.0555 | 0.0364 |  | 
39 | A170W | 0.0697 | 0.0606 | 0.07 | 0.0533 | 0.0778 | 0.0618 |  |  | 0.0369 | 0.0509

Same assay, conditions: temperature: 34 °C; time window: 0-4 h after rhamnose induction

Row | Variant | area with substrate ENLEFQS | area with substrate ENLGFQS | area with substrate ENLKFQS | area with substrate ENLFFQS | area with substrate ENLIFQS | area with substrate ENLRFQS | area with substrate ENLMFQS | area with substrate ENLTFQS
40 | H76T | 0.0612 | 0.0553 | 0.0602 |  |  |  |  | 
41 | V78E | 0.0484 |  | 0.0591 | 0.0662 | 0.0566 | 0.0618 |  | 
42 | M88L |  |  |  | 0.13 |  | 0.0792 |  | 
43 | F92V |  |  |  | 0.1 |  |  | 0.0762 | 0.0593
44 | P93C |  |  |  | 0.0854 |  |  |  | 
45 | P93D |  |  | 0.0916 |  |  |  |  | 
46 | P94N |  |  |  | 0.0943 |  |  |  | 
47 | L99V |  |  | 0.0708 | 0.0878 | 0.0752 |  |  | 
48 | K100Q |  |  | 0.0787 | 0.0883 |  |  |  | 
49 | F101S |  |  | 0.0507 |  |  |  |  | 
50 | E103D |  |  | 0.0708 | 0.0796 |  | 0.0698 |  | 
51 | E103P | 0.0615 |  |  | 0.0963 | 0.0654 |  |  | 
52 | R106N |  |  | 0.0764 | 0.0968 | 0.0991 |  |  | 
53 | V113K |  |  | 0.0632 | 0.0715 |  | 0.0536 |  | 0.0625
54 | T114L | 0.0679 | 0.0798 |  | 0.0917 |  | 0.0604 |  | 
55 | N116W | 0.0538 |  | 0.0742 |  |  |  |  | 
56 | F117P | 0.0675 |  |  |  | 0.0733 | 0.0697 |  | 
57 | T119S | 0.0792 |  | 0.0669 | 0.0616 |  |  | 0.0643 | 
58 | D128T |  |  | 0.109 |  |  |  |  | 

Row | Variant | area with substrate ENLEFQS | area with substrate ENLGFQS | area with substrate ENLKFQS | area with substrate ENLFFQS | area with substrate ENLIFQS | area with substrate ENLRFQS | area with substrate ENLMFQS | area with substrate ENLTFQS
59 | T129D | 0.0534 |  |  |  |  |  | 0.0723 | 
60 | C131I | 0.0664 |  |  |  | 0.076 | 0.0682 |  | 
61 | D137A |  | 0.0616 | 0.075 |  |  |  |  | 
62 | G138P |  |  |  | 0.0603 |  |  |  | 
63 | G138W | 0.0517 |  | 0.0647 | 0.0802 |  |  |  | 
64 | G138Y | 0.0645 | 0.0597 | 0.0635 | 0.0554 |  | 0.09 | 0.0727 | 
65 | I139T | 0.0396 | 0.0571 | 0.0799 | 0.136 |  |  |  | 
66 | H143N | 0.0579 |  |  |  |  |  |  | 
67 | G150A | 0.0643 |  | 0.0669 | 0.0435 |  |  |  | 
68 | G150Y |  |  | 0.0594 | 0.055 | 0.0514 |  | 0.0648 | 
69 | G153I | 0.052 | 0.0437 |  | 0.0444 |  | 0.0538 |  | 
70 | G153L | 0.0542 | 0.055 | 0.045 | 0.0558 |  |  |  | 
71 | G153T |  |  |  | 0.0469 |  | 0.0381 |  | 
72 | S154I |  |  |  | 0.0987 | 0.0706 |  | 0.0817 | 
73 | L156Y |  | 0.0403 | 0.0658 | 0.0627 |  |  |  | 
74 | G162N |  |  |  |  |  |  | 0.0717 | 
75 | V165L |  | 0.0577 | 0.0896 | 0.101 |  | 0.0633 |  | 
76 | G166K |  |  | 0.0536 |  |  |  |  | 0.0618
77 | A170W |  |  | 0.0645 | 0.0551 |  |  |  | 
